Data: publication PMC4896931, “The discovery of 2-substituted phenol quinazolines as potent RET kinase inhibitors with improved KDR selectivity” (European Journal of Medicinal Chemistry, 2016)

target: BaF3 cells expressing KDR (Homo sapiens, UniProt P35968); test: BaF3 cellular assay, KDR-driven line (CellTiter-Glo viability); assay type: cell-based; conditions: 48 h, geometric mean of at least four determinations, standard deviation in parentheses

Q: With COc1cc2ncnc(Nc3ccc(Br)cc3F)c2cc1OC [Compound 4] as the compound, how does the IC50 read?
A: 2900 nM

Q: Which IC50 does the source give for COc1cc2ncnc(Nc3cccc(O)c3F)c2cc1OC [Compound 14, 3-((6,7-Dimethoxyquinazolin-4-yl)amino)-2-fluorophenol] here?
A: 1300 nM

Q: For COc1cc2ncnc(Nc3ccc(C)c(O)c3)c2cc1OC [Compound 20], which IC50 is on record?
A: 88 nM

Q: Which IC50 does the source give for COc1cc2ncnc(Nc3ccc(Cl)c(O)c3)c2cc1OC [Compound 21] here?
A: 110 nM

Q: How did the IC50 turn out when COc1cc2ncnc(Nc3cc(O)ccc3F)c2cc1OC [Compound 25] was run?
A: 98 nM

Q: For COc1cc2ncnc(Nc3cc(O)ccc3Cl)c2cc1OC [Compound 26, 4-Chloro-3-((6,7-dimethoxyquinazolin-4-yl)amino)phenol], which IC50 is on record?
A: 240 nM

Q: COc1cc2ncnc(Nc3cc(O)c(F)cc3F)c2cc1OC [Compound 28] was tested. Which IC50 did it give?
A: 66 nM

Q: For COc1cc2ncnc(Nc3cc(O)c(C)cc3F)c2cc1OC [Compound 30], which IC50 is on record?
A: 9.5 nM

Q: With COc1cc2ncnc(Nc3c(Cl)ccc(O)c3C)c2cc1OC [Compound 37, 4-Chloro-3-((6,7-dimethoxyquinazolin-4-yl)amino)-2-methylphenol] as the compound, how does the IC50 read?
A: > 10000 nM

Q: COc1cc2ncnc(Nc3c(Cl)ccc(O)c3Cl)c2cc1OC [Compound 39, 2,4-Dichloro-3-((6,7-dimethoxyquinazolin-4-yl)amino)phenol] was tested. Which IC50 did it give?
A: > 10000 nM

Q: With COc1cc2ncnc(Nc3c(F)ccc(O)c3Cl)c2cc1OC [Compound 40, 2-Chloro-3-((6,7-dimethoxyquinazolin-4-yl)amino)-4-fluorophenol] as the compound, how does the IC50 read?
A: 5400 nM

Q: With COc1cc2ncnc(Oc3cccc(O)c3)c2cc1OC [Compound 42, 3-((6,7-Dimethoxyquinazolin-4-yl)oxy)phenol] as the compound, how does the IC50 read?
A: 840 nM

target: T1, RET (Homo sapiens, UniProt P07949); test: RET biochemical assay (CisBio HTRF kinEASE); conditions: ATP at Km, geometric mean of four independent determinations, standard deviation in parentheses
T1 construct: purchased Carna Biosciences 08-159

Q: Which IC50 does the source give for COc1cc2ncnc(Nc3cccc(O)c3C#N)c2cc1OC [Compound 18, 2-((6,7-Dimethoxyquinazolin-4-yl)amino)-6-hydroxybenzonitrile] here?
A: > 10000 nM
